In article PMC12136788:
This is one part of the list.

T1: UNK ZnF1-3 (human, UniProt Q9C0B0 31-174)
T1 sequence: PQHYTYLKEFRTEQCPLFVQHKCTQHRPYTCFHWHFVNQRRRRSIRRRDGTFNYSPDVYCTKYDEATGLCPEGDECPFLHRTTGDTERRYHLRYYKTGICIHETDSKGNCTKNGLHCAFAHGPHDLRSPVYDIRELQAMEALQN

B1: chr12:21919153:21919154:-_ENSG00000121361_ENST00000240662|hu_mus|FALSE|FALSE (ssRNA)
RNA: GGGAGUUCUACAGUCCGACGAUCAUACAGGGGGCUACGCUUGUCAAUCACGUGGCAGAUGAUCAAUGGGGCCACUAGGAAGAUAUUAUUGCUCUCGAUGGGAUUAUCAACAGGAAUGUCCUGCUGAUGAAUAGGCACCACCUCCAACAGAGGAUUGAGCAUCA
B2: chr3:176767854:176767855:-_ENSG00000177565_ENST00000430069|hu_hu|hu_hu_hu_mus_False|48_108 (ssRNA)
RNA: GGGAGUUCUACAGUCCGACGAUCGACAUCCUUGUUGCUGGGCACGUCCUGCCCUCCUUCCCGUAUGCAGUGUCUAAGCACGAGCUGUGUAGAGCCACUCGUGCUGUUCUCACUGAGGUUCCAGAUUCUUGCCGUGGAGUCUCCCAACAGAGGAUUGAGCAUCA
B3: 94532752_94532872_597_3pUTR_ENSG00000166025_ENST00000433060|human|control|control (ssRNA)
RNA: GGGAGUUCUACAGUCCGACGAUCCAUCACCGUAUUGUCCACCUGGUGUUCUUGACCCUGCGGUUCUUGGCGUGCUGACUGGUAGACCAUUUGUGGGUCUUCUUGAGUGAGGUUUUCCGUGGAAGAAAAGUUGUUUGUAGGAUGCAACAGAGGAUUGAGCAUCA
B4: 93635196_93635316_265_5pUTR_ENSMUSG00000063015_ENSMUST00000058550|mouse|control|control (ssRNA)
RNA: GGGAGUUCUACAGUCCGACGAUCGGCCCGAGGCCGCCGCCGCCGGUCCCGCUCCUCCGACCGCCGCCGCUGGUGCCCGGGUGAGGAGGGGGCGCCCUCUCGCCAUAGGGCGGCGGGGGCCGGGGAGAGGCGCGGGGUGAGGCCCAACAGAGGAUUGAGCAUCA
B5: chr16:94690422:94690423:+_ENSMUSG00000040785_ENSMUST00000117648|mus_hu|FALSE|FALSE (ssRNA)
RNA: GGGAGUUCUACAGUCCGACGAUCUGUGACCAGAAUUCAUGGUUCUAUAUUUACCACUGUCUAAAAGUCACAAAACAAUAUCUAAUUUUUUCAUGGUUUCUAAUGCAGUUACAGUUUUGUUCUUAGGUCACAGUACAAGACUGCCAACAGAGGAUUGAGCAUCA
B6: chr11:29608523:29608524:+_ENSMUSG00000020458_ENSMUST00000102843|mus_mus|FALSE|FALSE (ssRNA)
RNA: GGGAGUUCUACAGUCCGACGAUCACUUUUGGAGAAUUCAUCUGAGACAUGUGCUUCAUCUUUAGGAUAUGUAUUCUUGAAAGAAAGGUCACAGGGCAAUUCUGAGCAAGGCAACGAAUUGGCCCCGCUCUGGACAUUAGCAAUCAACAGAGGAUUGAGCAUCA
B7: chr11:113085134:113085135:+_ENSG00000149294_ENST00000316851|hu_hu|FALSE|FALSE (ssRNA)
RNA: GGGAGUUCUACAGUCCGACGAUCGGUGAUGGAGGGAAUGGGGUCUCCGGAGGCUUCACAGGUAAGAGUGACCUGCUCCUCUAAUUCCAUGGCAGUCUGGUUCUCUACAUAUGUGAUUUUGGGUUUUGCAAAGACUUUGAGGUGCAACAGAGGAUUGAGCAUCA
B8: chr20:52835626:52835627:+_ENSG00000101132_ENST00000441080|hu_hu|FALSE|FALSE (ssRNA)
RNA: GGGAGUUCUACAGUCCGACGAUCAGCUUCAAGGUUUAUGUUGCUCCCGAAUUUUGCAUACAACUGAACUUUCAAAUCUGCUAACACUCGCUGAAUUGAUUCCACUCUGGAUUCUAAGGCGUCAAUUUCUUCUUGCAAAUUUUUCAACAGAGGAUUGAGCAUCA
B9: chr8:41367971:41367972:+_ENSG00000147533_ENST00000520817|hu_mus|FALSE|FALSE (ssRNA)
RNA: GGGAGUUCUACAGUCCGACGAUCGCAACAUACUGUAUUAUUUCUACCAAUUUUUUCUCCUAAGUUAUACUUGUAACAAAACUAGAGUUAGGUGCUUAGGACACUUGCUUCUUCCACACCGGGCAGAGCUGGGGCAGGUGGAGCCAACAGAGGAUUGAGCAUCA
B10: chr18:25636641:25636642:-_ENSMUSG00000024268_ENSMUST00000025117|mus_hu|motif|central (ssRNA)
RNA: GGGAGUUCUACAGUCCGACGAUCCAUUUACCAAAGAUAAAUAUCGUGCUUUCAUUAAAUAGUUUUCCUUGUUUUUUUCUCGGUCAUUACAAUUAAAAGUCCUACAAAAUAUGCAAAUUUAUUUACAGAAAAACAGAGCCGGCACAACAGAGGAUUGAGCAUCA
B11: chr7:54825262:54825263:-_ENSG00000132432_ENST00000352861|hu_hu|hu_hu_hu_mus_False|8_88 (ssRNA)
RNA: GGGAGUUCUACAGUCCGACGAUCCUGCCGGCUGGGCUCCACAAACUUUACCUGAUCAUCCAUGUUUGUUGGAUGGCGGAUUGAGAGCGUAGAGACACGUAGCUCAGGAGAGAACCGAGCCCAACGGCACCGGAACCUGGCAACCAACAGAGGAUUGAGCAUCA
B12: chr10:75239141:75239142:-_ENSG00000107758_ENST00000394829|hu_hu|motif|central (ssRNA)
RNA: GGGAGUUCUACAGUCCGACGAUCUACUUCUAUCAUGGUUUUCUCUCUCCGAAGGAUGGCAGCACCCUCAUUGAUAAUUCGGAGCGCAAUUUCUUCAUCUACUCGACCUUCUUUCACCAAGUGGUUCUUCAGAACAUCAACCCUCAACAGAGGAUUGAGCAUCA
B13: chr4:25749455:25749456:-_ENSG00000091490_ENST00000264868|hu_hu|hu_hu_hu_mus_False|68_108 (ssRNA)
RNA: GGGAGUUCUACAGUCCGACGAUCGCAAGCACUAGGAUAGAAAAAUCCACAGGGGGAAAAAAUGUAAACCAAUUUACAAUGUUAUCGCCUUCCCUGUGUGUGGAGUGUUUGUCUCAAGGCUCCUUCUAGCUGCUGGAUUUGGGACAACAGAGGAUUGAGCAUCA
B14: chr10:61147818:61147819:+_ENSMUSG00000020088_ENSMUST00000020285|mus_mus|motif|central (ssRNA)
RNA: GGGAGUUCUACAGUCCGACGAUCUAGUCUGUCAUCUUUCAGCAUGUGAAGAAGAGUGGUUUUGCCCGCAUUGUCCAAUCCGGAGAAUACAAGUUUUCCAGAUUUCUUGUAGAGUCCUAGGAACUGGAGCACACUGCUGAAGCCCAACAGAGGAUUGAGCAUCA
B15: chr15:59387643:59387644:+_ENSG00000157450_ENST00000557998|hu_mus|motif|central (ssRNA)
RNA: GGGAGUUCUACAGUCCGACGAUCAAGGGCGGUACUUAACUCAGAAUUCCAUAUUGUAAAUAUACAGCAGCCAUUUUGUCCGGAUUUAAUUAAGGAAUGUCUUAAUACACAAUAUCAUUUCCUAGAAAAUCUUUAUACAUUAAACAACAGAGGAUUGAGCAUCA
B16: chr10:126501906:126501907:+_ENSMUSG00000006728_ENSMUST00000133115|mus_mus|FALSE|FALSE (ssRNA)
RNA: GGGAGUUCUACAGUCCGACGAUCCUUCAGGUCCCGGUGAACAAUGCAGUUUGCAUGAAGAAAAUCCAGGCCGCUUAGAAACUGACGCAUUAGAUCCUUAAUGGUCUCAACCGGCAGGCCCGGUGGAGGUGCUUUGUCCAGGUACAACAGAGGAUUGAGCAUCA
B17: chr4:115894766:115894767:+_ENSMUSG00000028698_ENSMUST00000030464|mus_hu|mus_mus_mus_hu_True|28_48 (ssRNA)
RNA: GGGAGUUCUACAGUCCGACGAUCUUCCACACGGAAAUGUACUUCGGGUUUUCCAACGGCCAGUACCAGUCCGGCCAAACUACCCGAUGAGGACAAGCCCCCUCUCUUCUCUCCUCCACAACAAAAUGCCCCCGAACUUUCAAGCAACAGAGGAUUGAGCAUCA
B18: chr4:138660994:138660995:-_ENSMUSG00000050608_ENSMUST00000143971|mus_mus|motif|central (ssRNA)
RNA: GGGAGUUCUACAGUCCGACGAUCAAAGUCAUGCUGACAGUUGGAGUAGGCCAUUCCCAAUCCCACGCCAGAACCAAAGGCGGAUGGCCACAUUCUUCUCUUAAAGAAGGUGAGGGAGAAAACAAUUCCUAAUCCAAACCCAGUCAACAGAGGAUUGAGCAUCA
B19: chr22:32879901:32879902:+_ENSG00000100225_ENST00000397426|hu_mus|hu_hu_hu_mus_False|58_78 (ssRNA)
RNA: GGGAGUUCUACAGUCCGACGAUCCUCUUCCAUACUCAUGGCAUCCUGAAUUGACUCAGCUUCAAAAUUUUGACUAGGCCCUAACAUACUGUCAUCAGUCCAGGCAUCAAAUGGGGUGGCCUGUCCUUGGGAUGAAUCAGUCCCCAACAGAGGAUUGAGCAUCA
B20: chr2:9570881:9570882:+_ENSG00000119203_ENST00000238112|hu_mus|hu_hu_hu_mus_False|58_58 (ssRNA)
RNA: GGGAGUUCUACAGUCCGACGAUCACUUGUCUUCUGAAGGAACCAGGGCAGGGCUCCACAGUGAUCCAAAUGGAAAUGACUAAUUAACAGAAGGUCGAUCUCAGCUGGGUCGAUAAGGUCAAUGUAAGGAAGGGCAUCCAUUCCCAACAGAGGAUUGAGCAUCA
B21: chr7:108212191:108212192:+_ENSG00000128590_ENST00000249356|hu_mus|motif|central (ssRNA)
RNA: GGGAGUUCUACAGUCCGACGAUCGUUAUCAUUAAAAUGCAGAUUGCAAAGACGAAAACUGACUGUGGAGUAGCCAUUUCGGAUAACCUGUGCGCCCCGACGCAGCUUCUCCACAGCGCGGCGGCCCGGCUCCGGUUCCCUGACCAACAGAGGAUUGAGCAUCA
B22: chr10:33190432:33190433:-_ENSG00000150093_ENST00000302278|hu_mus|hu_hu_hu_mus_True|28_98 (ssRNA)
RNA: GGGAGUUCUACAGUCCGACGAUCUACAUUUUCCAAACCUGCACAUGAAUAAAACCCUGGCCACAGAGCCCCAAAACUACCCUACUGUGACUAAGAUGCUGCUGCUGUUGCAUUCAGGUUGCAAAAUCCGCCUGAGUAGGAUUCCAACAGAGGAUUGAGCAUCA

target: T1, UNK ZnF1-3; test: nsRBNS (natural sequence RNA bind-n-seq); RBNS binding buffer (assumed for nsRBNS): 25 mM Tris pH 7.5, 150 mM KCl, 3 mM MgCl2, 0.01% Triton X-100, 500 ug/ml BSA, 20 U/ml SUPERase-In, 4 C; UNK is unkempt and MSI1 is Musashi-1; names of the RNAs are library labels; protein concentration not given here; high values mean tight binding

Row | Binder | binding signal [enrichment R]
1 | B1 | 1
2 | B2 | 0.536
3 | B3 | 0.702
4 | B4 | 0.942
5 | B5 | 0.309
6 | B6 | 0.774
7 | B7 | 0.9
8 | B8 | 1.13
9 | B9 | 1.03
10 | B10 | 0.782
11 | B11 | 1.13
12 | B12 | 1.06
13 | B13 | 1.14
14 | B14 | 1
15 | B15 | 1.18
16 | B16 | 1.14
17 | B17 | 1.03
18 | B18 | 1.17
19 | B19 | 1.4
20 | B20 | 1.29
21 | B21 | 0.719
22 | B22 | 1.42
